About 11,000 (3.5%) of roughly 310,000 compounds were called active. The inconclusive results got no clear call from the source; some entries with a clear call stand among them for comparison. The call rests on the fitted dose curve; in most records, active means well fitted inhibition curve with a large enough effect; inconclusive means small, poorly fitted or top-dose-only effect, or effect the other way; inactive means flat fitted curve, though single readings scatter. Potencies of inconclusive entries are left out as doubtful fits.
Assay: VP16 counterscreen qHTS for inhibitors of ROR gamma transcriptional activity;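 further: Gal4-VP16 expression switched on by copper sulfate through the metallothionein promoter; nearly all actives have a fitted effect of over 50% in size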
Conditions: Drosophila S2 Gal4-VP16 UAS-luciferase, luminescence, 20 h; activity, negative = inhibition: at 53.6 µM (top of the series)
With O=C(/C=C/c1ccco1)Nc1ccc2c(c1)OCCO2 the Potency was inconclusive [inhibitor, single point]. For CCCCCc1cc(=O)oc2c(C(CCN3CCCC3)c3ccc4c(c3)OCO4)c(OC)cc(OC)c12 (configuration not stated), the Potency was inconclusive [inhibitor, single point]. With CSc1ncc(CN2CCc3c([nH]c4ccccc34)C2c2cccc(O)c2)cn1 (configuration not stated) the Potency was inconclusive [inhibitor, partial curve]. For Clc1cc2nc[nH]c2cc1Cl, the “activity, negative = inhibition” value was inactive: -6.21%. In the case of COc1ccc(N(C(=O)c2snc(C(N)=O)c2N)C(C(=O)NCc2ccccc2)c2ccc(O)cc2)cc1OC (configuration not stated), the Potency is reported as inconclusive [activator, single point]. In the case of COC(=O)N1CCC[C@@]2(CCN(C(=O)Nc3cccc(C#N)c3)C2)C1, the “activity, negative = inhibition” value is reported as inactive: -3.31%. In the case of Cc1cccc2sc(NNC(=O)c3cc(=O)c4ccccc4o3)nc12, the Potency is reported as inconclusive [inhibitor, single point]. For CCCc1nnc(NC(=O)CSc2nnc(-c3ccco3)n2C)s1, the “activity, negative = inhibition” value was inactive: -0.899%. With COc1cc(C(C)=O)ccc1Oc1ncnc2c1cnn2-c1ccc(C)c(C)c1 the Potency was inconclusive [inhibitor, single point]. In the case of Cc1cccc(CN2CCC(Oc3ccc(C(=O)N4CCCCC4)cc3)CC2)c1, the Potency is reported as inconclusive [activator, single point]. In the case of CCOC(=O)N1CCc2c(sc3ncn(C)c(=O)c23)C1, the “activity, negative = inhibition” value is reported as inactive: 0.137%. For CCc1ccc(OCC(=O)NC(NC(=S)Nc2ccccc2)C(Cl)(Cl)Cl)cc1 (configuration not stated), the Potency was active: 12.6 µM. For Cc1ccc(NC(=O)NC2CCCCCCC2)cc1, the Potency was inconclusive [activator, full curve]. For COc1cc(C)c(-c2cc(C(=O)O)c(C)o2)cc1C(C)C, the Potency was inconclusive [inhibitor, partial curve, poor fit]. For CCOC(=O)N1CCN(c2ccc(C(=O)c3ccccc3)cc2F)CC1, the “activity, negative = inhibition” value was inactive: -0.115%. In the case of COc1ccc(C(=O)Nc2ccc3c(c2)OCCO3)cc1, the Potency is reported as inconclusive [inhibitor, single point]. In the case of CN(C)CCCNS(=O)(=O)c1ccc(NC2CCCCCC2)c([N+](=O)[O-])c1, the Potency is reported as active: 20 µM. In the case of O=C(Nc1cccc2nsnc12)c1ccc(-c2cccc(Cl)c2)o1, the Potency is reported as inconclusive [inhibitor, single point]. With Cc1cc(SCC(=O)c2cc(C)n(C)c2C)nc2ccccc12 the Potency was inconclusive [inhibitor, single point]. In the case of Cc1ccc(NC(=S)NC(=O)C2CCCC2)cc1C, the Potency is reported as active: 4.47 µM. In the case of COc1ccc(S(=O)(=O)NC2CCCC2)cc1Cl, the “activity, negative = inhibition” value is reported as inactive: 2.6%. With N#CCC(=O)N/N=C/c1cn(Cc2ccc3ccccc3c2)c2ccccc12 the Potency was inconclusive [inhibitor, partial curve]. In the case of CN1/C(=C\C(=O)COC(=O)CN2C(=O)C3CC=CCC3C2=O)C(C)(C)c2ccccc21 (configuration not stated), the Potency is reported as active: 4.47 µM. For Oc1ccccc1/C=N/n1cnn(Cc2ccccc2Cl)c1=S, the Potency was inconclusive [inhibitor, single point]. With N/C(=N\N=C\c1cccc(O)c1)c1nonc1N the Potency was inconclusive [inhibitor, single point]. For CCNc1nc(NC(C)(C)C)nc(SCC(N)=O)n1, the “activity, negative = inhibition” value was inactive: 0.437%. With Cc1nnc2ccc(N3CCCCC3)nn12 the “activity, negative = inhibition” value was inactive: 17.9%. For CCc1c2c(nc3ccc(OC)cc13)-c1nc3ccccc3c(=O)n1C2, the Potency was inconclusive [inhibitor, partial curve]. In the case of CCCCC(=O)Nc1ccc(NC(=O)c2cnccn2)cn1, the “activity, negative = inhibition” value is reported as inactive: 13.6%. For O=C(/C=C/c1ccc(Cl)c([N+](=O)[O-])c1)Nc1cccc(NC(=O)c2ccco2)c1, the Potency was inconclusive [inhibitor, single point]. In the case of COc1ccc(Nc2nc(C)nc3c2oc2ccccc23)c(OC)c1, the Potency is reported as inconclusive [inhibitor, single point]. With COc1ccc(Cn2c(=S)[nH]c3cc(C(=O)N4CCCCC4)ccc3c2=O)cc1 the Potency was inconclusive [inhibitor, single point]. With CCn1c(SCC(=O)NCc2cccs2)nnc1-c1cccs1 the “activity, negative = inhibition” value was inactive: -13.7%. With CCn1c(SCC(=O)Nc2ccc(C)cc2)nc2nc3c(cc2c1=O)CCCC3 the Potency was inconclusive [inhibitor, single point]. For O=C(Oc1ccc(OC(=O)c2ccco2)c(S(=O)(=O)c2ccc(Br)cc2)c1)c1ccco1, the Potency was inconclusive [inhibitor, partial curve, poor fit]. In the case of Cc1ccc(C)c(NC(=O)CCC(=O)N/N=C/c2cccnc2)c1, the “activity, negative = inhibition” value is reported as inactive: -7.27%. With Cn1c(=O)c(C(=O)CCl)c(N)n(Cc2ccccc2)c1=O the Potency was inconclusive [inhibitor, single point]. In the case of CCOc1ccc(/C(O)=C2/C(=O)C(=O)N(CCN(CC)CC)C2c2ccco2)cc1 (configuration not stated), the Potency is reported as inconclusive [activator, single point]. For Cc1ccccc1C(=O)NC(=S)Nc1ccc(N2CCOCC2)cc1, the Potency was inconclusive [inhibitor, single point]. In the case of Cc1ccc(S(=O)(=O)c2nc(Nc3ccccc3)sc2Cl)cc1, the Potency is reported as inconclusive [inhibitor, single point]. For O=C(CC(NC(=O)c1ccccc1)c1ccccc1)Nc1ccc(F)c(F)c1 (configuration not stated), the Potency was inconclusive [inhibitor, partial curve]. For O=C(CCCc1ccccc1)Nc1ccc2c(c1)OCCO2, the Potency was inconclusive [inhibitor, single point]. For O=C(CC(Nc1ccc(Cl)cc1Cl)C(=O)O)c1ccccc1 (configuration not stated), the Potency was inconclusive [inhibitor, single point]. In the case of Cc1ccc(C(=O)N/N=C\c2ccc(-c3ccc(Cl)cc3)o2)cn1, the Potency is reported as active: 10 µM. With Cc1ccc(Cc2cnc(N3C(=N)SC(C)C3=O)s2)cc1 (configuration not stated) the Potency was active: 3.16 µM. For Cc1ccc(-c2ccnc(=S)[nH]2)cc1, the Potency was active: 3.55 µM. For CCCN(CC1CC1)C(=S)NC(=O)c1ccc(S(=O)(=O)N2CCOCC2)cc1, the Potency was active: 0.891 µM.
On the % scale 0 is the no-effect control and ±100 the full control effect; potency means the concentration at half of the fitted maximal effect; tags describe the fitted curve by direction and shape.
